Screen size: about 420,000 compounds; about 64,000 (15%) were called active. The shares of active, inactive and inconclusive entries below differ from those in the screen. The call rests on the fitted dose curve; in most records, active means well fitted inhibition curve with a large enough effect; inconclusive means small, poorly fitted or top-dose-only effect; inactive means flat fitted curve, though single readings scatter. Potencies of inconclusive entries are left out as doubtful fits.
test: qHTS for Inhibitors of human tyrosyl-DNA phosphodiesterase 1 (TDP1): qHTS in cells in absence of CPT; conditions: DT40 Tdp1-/- hTDP1 cells, no CPT, ATP luminescence, 48 h; series mostly up to 46.2 µM; further: nearly all actives have a fitted effect of over 55% in size
How it was run: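 Growth of hTDP1-complemented DT40 Tdp1-knockout cells is measured by ATP luminescence after at least 48 hr compound exposure at 37 °C, with DMSO substituting for the 20 nM CPT used in the parallel screen.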
Potency means the concentration at half of the fitted maximal effect; tags describe the fitted curve by direction and shape.

Row | Compound | Potency
1 | COc1cccc(CCNC(=O)c2c(O)nc3c(C)cccn3c2=O)c1 | inconclusive [inhibitor, single point]
2 | O=C(NC1CCCCC1)C(c1ccc(Cl)cc1)N(C(=O)c1cnccn1)c1ccc2c(c1)OCO2 (centres undefined) | inconclusive [inhibitor, single point]
3 | CC[C@@H]1CCCCc2ccccc2[C@@H](C(=O)C[C@@H](O)CC(C)=O)OC1=O | inactive
4 | CCCN1CC(=O)N2C(c3ccccc3)c3[nH]c4ccccc4c3C[C@H]2C1=O (some centres undefined) | inconclusive [inhibitor, single point]
5 | CC(Sc1nnc2ccc3ccccc3n12)C(=O)Nc1ccc(Cl)cc1 (centres undefined) | inconclusive [inhibitor, single point]
6 | COc1ccc(C(CNC(=O)Cc2ccccc2)N2CCCCC2)cc1 (centres undefined) | inconclusive [inhibitor, single point]
7 | CCN1C(=O)[C@H]2[C@@H](c3ccc(-c4ccc(OC)cc4)c(OC)c3)N[C@@](Cc3ccccc3)(C(=O)OC)[C@H]2C1=O | inconclusive [inhibitor, single point]
8 | COc1ccc(NC(=O)/C(C#N)=C\c2ccc(-c3cccc(C(=O)O)c3C)o2)cc1 | active: 4.61 µM
9 | CC(C)(C)S(=O)N1Cc2cc(C(=O)Nc3ccc(-c4ccccc4)cc3)nc(-c3cccc(-c4cc5ccccc5o4)c3)c2[C@@H]1CCO (some centres undefined) | inconclusive [inhibitor, single point]
10 | Fc1cccc(CCN2C(=S)NC[C@@H]2Cc2ccccc2)c1 | inconclusive [inhibitor, single point]
11 | CC(C)c1cccc(-c2ccc3c(c2)S(=O)(=O)c2cccc(C(=O)NCc4ccccc4)c2C3=O)c1 | active: 23.1 µM
12 | Cc1ccc(C(=O)NNC(=O)c2ccc3ccccc3c2)cc1 | inconclusive [inhibitor, single point]
13 | COC(=O)C1=C(O)/C(=C\c2cc(C)n(-c3ccccc3F)c2C)N=C1C | inactive
14 | CCCc1cc(=O)[nH]c(Nc2cc(C)ccc2OC)n1 | inactive
15 | CCOC(=O)c1cc(S(=O)(=O)N2CCN(c3ccccc3OC)CC2)cn1C | inconclusive [inhibitor, partial curve]
16 | COc1ccc(CNC(=O)N2CCN(c3ccccc3)CC2)cc1 | inactive
17 | CCN1CCN(c2ccc(S(=O)(=O)N3CCOCC3)cc2NC(=O)c2cc(Cl)nc3ccccc23)CC1 | active: 16.4 µM
18 | CCN1CC(C)C(O)(c2ccccc2)CC1C (centres undefined) | inactive
19 | O=S(=O)(c1ccc(N2CC=C(c3ccccc3)CC2)nc1)N1CCCC1 | active: 18.4 µM

Reference: PubChem BioAssay AID686978 (National Center for Advancing Translational Sciences (NCATS), 2013)
